Measured values from PubChem BioAssay AID504832 (National Center for Advancing Translational Sciences (NCATS), 2011).
Screen size: about 310,000 compounds; about 18,000 (5.8%) were called active. This list was built around the results that the source calls inconclusive (neither active nor inactive); the mix of calls is not that of the screen. Calls come from the whole dose curve; as a rule, active = well fitted inhibition curve with a large enough effect; inconclusive = small, poorly fitted or top-dose-only effect, or another doubt; inactive = no such curve, though single readings can be large or run the other way. Potencies of inconclusive entries are left out as doubtful fits.

assay: Primary qHTS for delayed death inhibitors of the malarial parasite plastid, 48 hour incubation; details: P. falciparum luciferase growth in erythrocytes; series mostly up to 28.7 µM; activity change, negative = inhibition: at the top concentration
Procedure, shortened: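 Read-out is firefly luciferase luminescence from an integrated reporter in P. falciparum, so falling signal marks reduced parasite growth. Infected erythrocytes were at 2% hematocrit and 0.1% parasitemia (final) in Albumax-supplemented RPMI 1640.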
% is set by controls: 0 for no effect and ±100 for the full control effect; potency is the fitted concentration of half-maximal effect; tags give direction and shape of the fitted curve.

| Compound | Potency | activity change, negative = inhibition |
| --- | --- | --- |
| O=C(NC(NC(=S)Nc1ccccc1Cl)C(Cl)(Cl)Cl)c1cccc(Cl)c1 (stereo unspecified) | inconclusive [inhibitor, partial curve, poor fit] |  |
| CN1CCN(C(c2ccc(C(F)(F)F)cc2)c2ccc3cccnc3c2O)CC1 (stereo unspecified) | inconclusive [inhibitor, single point] |  |
| CCOc1ccc(NC(=O)NCc2ccco2)cc1 |  | inactive: 27% |
| O=[N+]([O-])c1ccc(NC(=S)N2CCN(c3ccccc3)CC2)cc1 |  | inactive: 13.7% |
| Cc1ccc(S(=O)(=O)Nc2ccccc2CNc2ncc(Br)cc2Br)cc1 | inconclusive [inhibitor, partial curve, poor fit] |  |
| CNC(=O)C1CN(C(=O)c2cccc(S(=O)(=O)N3c4ccccc4CC3C)c2)c2ccccc2O1 (stereo unspecified) | inconclusive [inhibitor, single point] |  |
| O=C(O)c1ccc(Nc2nc(-c3ccc([N+](=O)[O-])cc3)nc3ccccc23)cc1 | inconclusive [inhibitor, partial curve] |  |
| O=C(CSc1nc(N2CCOCC2)nc(N2CCOCC2)n1)Nc1ccc(Cl)cc1Cl | inconclusive [inhibitor, partial curve, poor fit] |  |
| O=[N+]([O-])c1ccc(OCCn2cnc3ccccc32)cc1 | inconclusive [inhibitor, partial curve, poor fit] |  |
| COc1ccc(-n2cc(-c3ccccc3)c3c(=S)nc[nH]c32)cc1 | inconclusive [inhibitor, single point] |  |
| CN1C(=O)C(O)(CC(=O)/C=C/c2ccco2)c2cc(Br)ccc21 (stereo unspecified) | inconclusive [inhibitor, single point] |  |
| C=CCNc1nc(Nc2ccc([N+](=O)[O-])cc2)nc(OC)n1 | inconclusive [inhibitor, full curve, poor fit] |  |
| COc1cc2c(-c3ccc4cc[nH]c4c3)c(-c3ccc(C#N)cc3)oc(=O)c2cc1OC | active: 9.28 µM |  |
| COc1ccc(N2CCN(C(=O)COC(=O)CSc3ccccc3)CC2)cc1 |  | inactive: 12.9% |
| CC1(C)CC(NC(=O)c2ccc(Cl)c(S(=O)(=O)N(Cc3ccccc3)c3ccccc3)c2)CC(C)(C)N1 | active: 5.22 µM |  |
| CCCCOC(=O)C[N+](C)(C)CCOC1CC2CCC1(C)C2(C)C (stereo unspecified) | active: 1.47 µM |  |
| CCN(CC)S(=O)(=O)c1cc(C)c(C)cc1OCC(=O)NC1CCCC1 | inconclusive [inhibitor, single point] |  |
| CCCc1ccc(NC(=O)C2CCCN(c3cnccn3)C2)cc1 (stereo unspecified) | inconclusive [inhibitor, single point] |  |
| CCc1ccc(NC(=O)c2sccc2-n2cccc2)cc1 | inconclusive [inhibitor, partial curve, poor fit] |  |
| COc1cc2c(cc1O)CCN[C@@]21CS[C@H]2c3c(OC(C)=O)c(C)c4c(c3C(COC1=O)N1C2C2c3c(cc(C)c(OC)c3O)CC([C@@H]1O)N2C)OCO4 (stereo partly specified) | active: 0.0005 µM |  |
| O=C(CNc1ccc2ccccc2c1)N/N=C/c1ccc([N+](=O)[O-])o1 | active: 9.28 µM |  |
| COc1ccc(C(=O)/C=C/c2ccccc2)c(OC)c1 |  | inactive: -62.5% |

| Compound | Potency | activity change, negative = inhibition |
| --- | --- | --- |
| O=C(N/N=C1\CCc2ccccc21)c1ccc(O)cc1 |  | inactive: 67.3% |
| CCN(c1ccccc1)S(=O)(=O)c1ccc(Cl)c(NC(=O)CN2C(=O)NC3(CCCC3)C2=O)c1 | inconclusive [inhibitor, partial curve, poor fit] |  |
| O=C(CSc1ncn[nH]1)NCc1ccccc1 |  | inactive: -30% |
| CCn1c(=O)c2c(nc(SCC(=O)NC3CCCC3)n2C)n(C)c1=O |  | inactive: -2.87% |
| COc1ccc(CCn2c(=N)c(C(=O)NC3CCCC3)cc3c(=O)n4ccccc4nc32)cc1 | inconclusive [inhibitor, full curve] |  |
| COc1ccccc1C(CNC(=O)C(C)(C)Oc1ccc(Cl)cc1)N1CCCC1 (stereo unspecified) | active: 13.1 µM |  |
| CC(=O)N1CCc2cc(S(=O)(=O)NCC(=O)NCc3ccccc3Cl)ccc21 |  | inactive: -13.6% |
| CC(C)OC(=O)NCCOC(=O)Nc1ccc(Cl)c(Cl)c1 | inconclusive [inhibitor, full curve] |  |
| COc1cc2c(c(OCC(=O)NC(C)C)c1)C(=O)O[C@@H](C)CCCC(=O)CCCCC2 | inconclusive [inhibitor, full curve] |  |
| COc1ccc(CN(C)C(=O)/C=C/c2ccc(S(=O)(=O)N3CCCCCC3)cc2)cc1 | active: 9.28 µM |  |
| CC(NC(=O)C(C)N1C(=O)c2cccc([N+](=O)[O-])c2C1=O)c1ccccc1 (stereo unspecified) | inconclusive [inhibitor, full curve, poor fit] |  |
| CC(=O)N1CCc2c(sc(NC(=O)Cc3ccc(F)cc3)c2C(N)=O)C1 | inconclusive [inhibitor, single point] |  |
| Oc1ccc(N2CCN(C(c3cccs3)c3nnnn3CCc3ccccc3)CC2)cc1 (stereo unspecified) | inconclusive [inhibitor, single point] |  |
| O=C(Cc1ccc(F)cc1)N1CCC(CC2CC(c3ccc(Cl)cc3)=NO2)(C(=O)NCC2CCCCC2)CC1 (stereo unspecified) | inconclusive [inhibitor, partial curve] |  |
| O=C(CCl)N1N=C(c2cccs2)CC1c1ccco1 (stereo unspecified) | inconclusive [inhibitor, partial curve] |  |
| COC(=O)c1ccc2c(=O)n(Cc3ccc(C(=O)NC(C)C)cc3)c(=S)[nH]c2c1 | inconclusive [inhibitor, single point] |  |
| CC(C)OC(=O)C(C#N)c1nc2ccccc2nc1N1CCN(Cc2ccccc2)CC1 (stereo unspecified) | inconclusive [inhibitor, partial curve, poor fit] |  |
| CCN(CC)C(=O)COc1ccc2c(-c3ccc(OC)cc3)cc(=O)oc2c1 | inconclusive [inhibitor, partial curve] |  |
| CC(=O)Nc1ccccc1OCc1nnc(-c2ccc(Cl)cc2)o1 |  | inactive: 80% |
| COc1ccc(C(CNC(=O)c2ccc(S(=O)(=O)N(C)C)cc2)N2CCCC2)cc1 (stereo unspecified) | active: 10.4 µM |  |
| COc1ccc(CN(C)C(=O)COC(=O)c2c(-c3ccccc3Cl)noc2C)cc1 | inconclusive [inhibitor, partial curve] |  |
| CCn1c(=O)c(C(=O)Nc2nc3ccccc3[nH]2)c(O)c2ccccc21 | inconclusive [inhibitor, single point] |  |

| Compound | Potency | activity change, negative = inhibition |
| --- | --- | --- |
| CC(NC(=S)Nc1ccc(Cl)cc1)C(c1ccccc1)N1CCOCC1 (stereo unspecified) | inconclusive [inhibitor, single point] |  |
| COc1cccc(NC(=O)[C@H](Cc2c[nH]c3ccccc23)NC(=O)[C@@H]2Cc3ccccc3CN2)c1 | active: 9.28 µM |  |
| O=C(CCC(=O)N1CCN(c2ccc(O)cc2)CC1)c1ccc(Br)cc1 |  | inactive: 25.3% |
| Cc1cc(C)n(CCC(=O)N/N=C/c2c(O)ccc3ccccc23)n1 | active: 6.57 µM |  |
| CCOc1ccc(NC(=O)CS(=O)(=O)c2cn(CC)c3ccccc23)cc1 | inconclusive [inhibitor, partial curve, poor fit] |  |
| CC1(C)C(=O)Nc2ccccc2N1C(=O)COC(=O)/C=C/c1ccc(OC(F)F)cc1 | inconclusive [inhibitor, single point] |  |
| CSc1ncccc1C(=O)OCC(=O)N1CC(=O)Nc2ccccc21 |  | inactive: -8.79% |
| C=CCN1C2CCCC1CC(NC(=S)Nc1ccc(Cl)cc1)C2 (stereo unspecified) | inconclusive [inhibitor, partial curve] |  |
| COc1ccc(C(=O)c2c3ccc([N+](=O)[O-])cc3[n+]([O-])n2CCCN)cc1 | inconclusive [inhibitor, single point] |  |
| CC1(C)CC(N=c2cc(-c3ccccc3)oc3ccc(Cl)cc23)CC(C)(C)N1 | inconclusive [inhibitor, full curve] |  |
| CC(NC(=O)Cn1cccc1C(=O)c1ccccc1)c1ccc2c(c1)OCCO2 (stereo unspecified) |  | inactive: 0.319% |
| CCc1noc(C)c1C(=O)Nc1ccc(S(=O)(=O)N2CCCC(C)C2)cc1 (stereo unspecified) | inconclusive [inhibitor, full curve, poor fit] |  |
| Cc1ccc(CCNC(=O)c2cc(S(=O)(=O)N3CCCCC3)c[nH]2)cc1 | inconclusive [inhibitor, partial curve, poor fit] |  |
| Cc1c(NC(=S)NC(=O)COc2ccccc2)c(=O)n(-c2ccccc2)n1C | inconclusive [inhibitor, single point] |  |
| O=C(c1ccc(F)cc1)c1ccc(N2CCCCC2)cc1 |  | inactive: 88% |
| NS(=O)(=O)c1ccc(CCNC(=O)c2cc(-c3ccc(Br)cc3)nc3ccccc23)cc1 | inconclusive [inhibitor, single point] |  |
| CC(NC(=O)COc1ccc(S(=O)(=O)N2CCCC2)cc1)c1ccccc1 (stereo unspecified) | inconclusive [inhibitor, partial curve, poor fit] |  |
| Cc1cc(C)cc(NC(=O)N2CCC(C(=O)c3ccc(F)cc3)CC2)c1 | inconclusive [inhibitor, full curve] |  |
| CC1CCC(NC(=O)CN2C(=O)C3CCCN3c3ncc(Cl)cc32)CC1 (stereo unspecified) | active: 3.7 µM |  |
| Clc1cccc(-c2nc3nc4ccccc4nc3n2Cc2ccco2)c1 | inconclusive [inhibitor, single point] |  |
| CCOc1ccc(CCNC(=O)COC(=O)COc2cc(C)cc(C)c2)cc1OCC | inconclusive [inhibitor, single point] |  |
| OC(COc1cccc2ccccc12)CN1CCN(c2ccccc2)CC1 (stereo unspecified) |  | inactive: -4.64% |
